# Assay results as given in the supplement of paper PMC8728848.
# The other results are listed elsewhere or left out.
# B1: Epa1-NP (Candida glabrata), Q6VBJ0 (protein)
# chain: MILNPALFLNKCVCIYTTLILLLLTNGGYATSSNDISLASKDPTTFPLGCSPDITTPKKGLSMELYSYDFRKKGSYPCWDAAYLDPNYPRTGYKSHRLLAKVDGVTGNINFYYHATKGCTPQLGHLPASYNYPKPLTMTNFTMLLYGYFRPKVTGFHTFTISADDLLFVNFGAGNAFDCCRRDSSADHFGNYQAYAIWGSKTAKDELTVHLDAGVYYPIRLFYNNREYDGALSFTFKTESNENTVSDFSEYFFSLDDTEEGCPGLISYDSSCASVKTSKIIGIDYHTETPNENLVPITKTIYHLGIPCTGTTTTPLCGSGFYDPLANKCVTINTSSTSSVTKTTSHTTSKEVSFHSSISSQKTLIPKSIPSPYGPIKSQSIPTEMETSSEISSSEYAFSDVISTPSHSPYTKKHSSLNSSSYTSTVIHSLTSYSISQGIFSTSLSEQNITSKSSTDKFSTATSMSNNITQSSIIISQFSTNNENYTTTSMHTSSDKISTETLNNSISTTTSILFSNSSTILKNNTTIISSDKDTHYHPVNPTIVCSTNKTEIICASITQPSISNSNNHWSSSVLKFNSTTVRSTLPSSAGSNETSINVPFSSSTESNTSTSSTSTSNSKMVRSTLPSSAGSNETSISVPFSSSTESNTSTSSTSTSNSKMVRSTLPSSAGSNETSINVPFSSSTESNTSTSSTSTSNSKTVRSTPFSSAGIIMTSLSQRNNKSASSYASSNSKCYNTADSCRKVHSTPSYLLTSSYTSEGVDYDCSLVSTKLKINDTNCVNNKHTTKSCLKTSVTTTIPTLEIKTARKSSSNTIGLHSYPTSSPNKSISSAPIIGYISSFKTIKTASPSYQTSDLTTITTITSLNNPGSTAVENTHESNDKSRKTSSNDISSKHSVIKETKDAVESSNKSHQTNTLKCSSIIIASSSHNSYESLGGTTLTLTLSKVYSPQNNDTLPFLEISEVNPSRTVLPESSKMMQYLTSTEERNKTARNTIATNIVSISTFHFEGEGNAIRMGYTQLLLMLIGIIVMNIGT
# Key:
# Assay in all cases: glycan array binding signal (z-score within array); higher = stronger binding
# Details in all cases: glycan notation: IUPAC condensed, linker removed
# [1] = target: Fuc(a1-2)[Gal(a1-3)]Gal(b1-3)GlcNAc
# Outline: (§1)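 The Consortium for Functional Glycomics database supplied 3228 glycan arrays, of which those lacking an available protein sequence were dropped. The binding signal, a within-array Z-score, was averaged across arrays of the same protein sequence and across linkers. Negative scores can be read as non-binding.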
# [2] = target: Fuc(a1-2)[Gal(a1-3)]Gal(b1-3)GlcNAc(b1-2)Man(a1-3)[Fuc(a1-2)[Gal(a1-3)]Gal(b1-3)GlcNAc(b1-2)Man(a1-6)]Man(b1-4)GlcNAc(b1-4)GlcNAc
# Outline: as §1
# [3] = target: Fuc(a1-2)[Gal(a1-3)]Gal(b1-3)GlcNAc(b1-2)Man(a1-3)[Fuc(a1-2)[Gal(a1-3)]Gal(b1-3)GlcNAc(b1-2)Man(a1-6)]Man(b1-4)GlcNAc(b1-4)[Fuc(a1-6)]GlcNAc
# Outline: as §1
# [4] = target: Fuc(a1-2)[Gal(a1-3)]Gal(b1-3)GlcNAc(b1-3)GalNAc
# Outline: as §1
# [5] = target: Fuc(a1-2)[Gal(a1-3)]Gal(b1-3)GlcNAc(b1-6)GalNAc
# Outline: as §1
# [6] = target: Fuc(a1-2)[Gal(a1-3)]Gal(b1-4)Glc
# Outline: as §1
# [7] = target: Fuc(a1-2)[Gal(a1-3)]Gal(b1-4)GlcNAc
# Outline: as §1
# [8] = target: Fuc(a1-2)[Gal(a1-3)]Gal(b1-4)GlcNAc(b1-2)Man
# Outline: as §1
# [9] = target: Fuc(a1-2)[Gal(a1-3)]Gal(b1-4)GlcNAc(b1-2)Man(a1-3)[Fuc(a1-2)[Gal(a1-3)]Gal(b1-4)GlcNAc(b1-2)Man(a1-6)]Man(b1-4)GlcNAc(b1-4)GlcNAc
# Outline: as §1
# [10] = target: Fuc(a1-2)[Gal(a1-3)]Gal(b1-4)GlcNAc(b1-2)Man(a1-3)[Fuc(a1-2)[Gal(a1-3)]Gal(b1-4)GlcNAc(b1-2)Man(a1-6)]Man(b1-4)GlcNAc(b1-4)[Fuc(a1-6)]GlcNAc
# Outline: as §1
# [11] = target: Fuc(a1-2)[Gal(a1-3)]Gal(b1-4)GlcNAc(b1-3)GalNAc
# Outline: as §1
# [12] = target: Fuc(a1-2)[Gal(a1-3)]Gal(b1-4)GlcNAc(b1-3)[Fuc(a1-2)[Gal(a1-3)]Gal(b1-4)GlcNAc(b1-6)]GalNAc
# Outline: as §1
# [13] = target: Fuc(a1-2)[Gal(a1-3)]Gal(b1-4)GlcNAc(b1-6)GalNAc
# Outline: as §1
# [14] = target: Fuc(a1-2)[Gal(a1-3)]Gal(b1-4)[Fuc(a1-3)]Glc
# Outline: as §1
# [15] = target: Fuc(a1-2)[Gal(a1-3)]Gal(b1-4)[Fuc(a1-3)]GlcNAc
# Outline: as §1
# [16] = target: Fuc(a1-2)[Gal(a1-3)]Gal(b1-4)[Fuc(a1-3)]GlcNAc(b1-3)GalNAc
# Outline: as §1
# [17] = target: Fuc(a1-2)[Gal(a1-4)]Gal(b1-4)GalNAc
# Outline: as §1
# [18] = target: Fuc(a1-2)[Gal(a1-4)]Gal(b1-4)GlcNAc
# Outline: as §1
# [19] = target: Fuc(a1-2)[GalNAc(a1-3)]Gal
# Outline: as §1
# [20] = target: Fuc(a1-2)[GalNAc(a1-3)]Gal(b1-3)GalNAc(a1-3)[Fuc(a1-2)]Gal(b1-4)GlcNAc
# Outline: as §1
# [21] = target: Fuc(a1-2)[GalNAc(a1-3)]Gal(b1-3)GalNAc(b1-3)Gal(a1-4)Gal(b1-4)Glc
# Outline: as §1
# [22] = target: Fuc(a1-2)[GalNAc(a1-3)]Gal(b1-3)GlcNAc
# Outline: as §1
# [23] = target: Fuc(a1-2)[GalNAc(a1-3)]Gal(b1-3)GlcNAc(b1-2)Man(a1-3)[Fuc(a1-2)[GalNAc(a1-3)]Gal(b1-3)GlcNAc(b1-2)Man(a1-6)]Man(b1-4)GlcNAc(b1-4)GlcNAc
# Outline: as §1
# [24] = target: Fuc(a1-2)[GalNAc(a1-3)]Gal(b1-3)GlcNAc(b1-2)Man(a1-3)[Fuc(a1-2)[GalNAc(a1-3)]Gal(b1-3)GlcNAc(b1-2)Man(a1-6)]Man(b1-4)GlcNAc(b1-4)[Fuc(a1-6)]GlcNAc
# Outline: as §1
# [25] = target: Fuc(a1-2)[GalNAc(a1-3)]Gal(b1-3)GlcNAc(b1-3)GalNAc
# Outline: as §1
# [26] = target: Fuc(a1-2)[GalNAc(a1-3)]Gal(b1-3)GlcNAc(b1-6)GalNAc
# Outline: as §1
# [27] = target: Fuc(a1-2)[GalNAc(a1-3)]Gal(b1-4)Glc
# Outline: as §1
# [28] = target: Fuc(a1-2)[GalNAc(a1-3)]Gal(b1-4)GlcNAc
# Outline: as §1
# [29] = target: Fuc(a1-2)[GalNAc(a1-3)]Gal(b1-4)GlcNAc(b1-2)Man
# Outline: as §1
# [30] = target: Fuc(a1-2)[GalNAc(a1-3)]Gal(b1-4)GlcNAc(b1-2)Man(a1-3)[Fuc(a1-2)[GalNAc(a1-3)]Gal(b1-4)GlcNAc(b1-2)Man(a1-6)]Man(b1-4)GlcNAc(b1-4)GlcNAc
# Outline: as §1
binder,measurement,setting,value
B1,glycan array binding signal (z-score),[1],-0.287
same,glycan array binding signal (z-score),[2],-0.293
same,glycan array binding signal (z-score),[3],-0.281
same,glycan array binding signal (z-score),[4],-0.275
same,glycan array binding signal (z-score),[5],-0.298
same,glycan array binding signal (z-score),[6],-0.332
same,glycan array binding signal (z-score),[7],-0.241
same,glycan array binding signal (z-score),[8],-0.273
same,glycan array binding signal (z-score),[9],-0.268
same,glycan array binding signal (z-score),[10],-0.301
same,glycan array binding signal (z-score),[11],-0.269
same,glycan array binding signal (z-score),[12],-0.281
same,glycan array binding signal (z-score),[13],-0.29
same,glycan array binding signal (z-score),[14],-0.267
same,glycan array binding signal (z-score),[15],-0.284
same,glycan array binding signal (z-score),[16],-0.197
same,glycan array binding signal (z-score),[17],1.74
same,glycan array binding signal (z-score),[18],-0.051
same,glycan array binding signal (z-score),[19],-0.287
same,glycan array binding signal (z-score),[20],-0.271
same,glycan array binding signal (z-score),[21],-0.282
same,glycan array binding signal (z-score),[22],-0.326
same,glycan array binding signal (z-score),[23],-0.294
same,glycan array binding signal (z-score),[24],-0.265
same,glycan array binding signal (z-score),[25],-0.097
same,glycan array binding signal (z-score),[26],-0.291
same,glycan array binding signal (z-score),[27],-0.333
same,glycan array binding signal (z-score),[28],-0.336
same,glycan array binding signal (z-score),[29],-0.294
same,glycan array binding signal (z-score),[30],-0.263
